# From the supplement of paper PMC8728848
# This is one part of the list.
# B1: MpL2 (Macrolepiota procera) (protein)
# chain: MSTQVSSGQTYKITNVKAGTVIDLSGEDNKSIIGYPYHSGKNQQWTFNWTGKAWTLRSASSGSYLGIEGTPADGTRLVAVNDPFEWHIWRDEANENAFRIFVPFTNYNLRLSGYGDTTPGTPVQLWWTWEGLHQTWTIDRP
# How the values were obtained:
# Experiment in all cases: glycan array binding signal (z-score within array); higher = stronger binding
# Conditions in all cases: glycan notation: IUPAC condensed, linker removed; mutation: D109R
# [1] = biological target: Fuc(a1-2)Gal(b1-4)GlcNAc(b1-3)Gal(b1-4)GlcNAc(b1-2)Man(a1-3)[Fuc(a1-2)Gal(b1-4)GlcNAc(b1-3)Gal(b1-4)GlcNAc(b1-2)Man(a1-6)]Man(b1-4)GlcNAc(b1-4)GlcNAc
# Outline: (§1)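 The binding signal is a Z-score computed within each array. Data were drawn from 3228 arrays in the Consortium for Functional Glycomics database, restricted to those with a known protein sequence. Scores were averaged over arrays of the same protein sequence at different concentrations or buffers, and over linkers, and negative values can be taken as non-binding.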
# [2] = biological target: Fuc(a1-2)Gal(b1-4)GlcNAc(b1-3)Gal(b1-4)GlcNAc(b1-3)Gal(b1-4)GlcNAc
# Outline: as §1
# [3] = biological target: Fuc(a1-2)Gal(b1-4)GlcNAc(b1-3)GalNAc
# Outline: as §1
# [4] = biological target: Fuc(a1-2)Gal(b1-4)GlcNAc(b1-3)[Fuc(a1-2)Gal(b1-4)GlcNAc(b1-6)]GalNAc
# Outline: as §1
# [5] = biological target: Fuc(a1-2)Gal(b1-4)GlcNAc(b1-3)[Fuc(a1-3)[Gal(b1-4)]GlcNAc(b1-6)]Gal(b1-4)Glc
# Outline: as §1
# [6] = biological target: Fuc(a1-2)Gal(b1-4)GlcNAc(b1-6)GalNAc
# Outline: as §1
# [7] = biological target: Fuc(a1-2)Gal(b1-4)GlcNAc6S
# Outline: as §1
# [8] = biological target: Fuc(a1-2)Gal(b1-4)[Fuc(a1-3)]GlcNAc
# Outline: as §1
# [9] = biological target: Fuc(a1-2)Gal(b1-4)[Fuc(a1-3)]GlcNAc(b1-2)Man(a1-3)[Fuc(a1-2)Gal(b1-4)[Fuc(a1-3)]GlcNAc(b1-2)Man(a1-6)]Man(b1-4)GlcNAc(b1-4)[Fuc(a1-6)]GlcNAc
# Outline: as §1
# [10] = biological target: Fuc(a1-2)Gal(b1-4)[Fuc(a1-3)]GlcNAc(b1-2)[Fuc(a1-2)Gal(b1-4)[Fuc(a1-3)]GlcNAc(b1-4)]Man(a1-3)[Fuc(a1-2)Gal(b1-4)[Fuc(a1-3)]GlcNAc(b1-2)Man(a1-6)]Man(b1-4)GlcNAc(b1-4)GlcNAc
# Outline: as §1
# [11] = biological target: Fuc(a1-2)Gal(b1-4)[Fuc(a1-3)]GlcNAc(b1-3)Gal(b1-4)[Fuc(a1-3)]GlcNAc
# Outline: as §1
# [12] = biological target: Fuc(a1-2)Gal(b1-4)[Fuc(a1-3)]GlcNAc(b1-3)Gal(b1-4)[Fuc(a1-3)]GlcNAc(b1-3)Gal(b1-4)[Fuc(a1-3)]GlcNAc
# Outline: as §1
# [13] = biological target: Fuc(a1-2)Gal(b1-4)[Fuc(a1-3)]GlcNAc(b1-3)GalNAc
# Outline: as §1
# [14] = biological target: Fuc(a1-2)Gal(b1-4)[Fuc(a1-3)]GlcNAc(b1-3)[Neu5Ac(a2-6)Gal(b1-4)GlcNAc(b1-6)]Gal(b1-4)Glc
# Outline: as §1
# [15] = biological target: Fuc(a1-2)Gal3S(b1-4)GlcNAc
# Outline: as §1
# [16] = biological target: Fuc(a1-2)Gal6S(b1-3)GlcNAc
# Outline: as §1
# [17] = biological target: Fuc(a1-2)Gal6S(b1-3)GlcNAc6S
# Outline: as §1
# Fuc(a1-2)Gal6S(b1-4)Glc = biological target: Fuc(a1-2)Gal6S(b1-4)Glc
# Outline: as §1
# [18] = biological target: Fuc(a1-2)Gal6S(b1-4)Glc6S
# Outline: as §1
# Fuc(a1-2)[Gal(a1-3)]Gal = biological target: Fuc(a1-2)[Gal(a1-3)]Gal
# Outline: as §1
# [19] = biological target: Fuc(a1-2)[Gal(a1-3)]Gal(b1-3)GalNAc
# Outline: as §1
# [20] = biological target: Fuc(a1-2)[Gal(a1-3)]Gal(b1-3)GalNAc(b1-3)Gal(a1-4)Gal(b1-4)Glc
# Outline: as §1
# [21] = biological target: Fuc(a1-2)[Gal(a1-3)]Gal(b1-3)GlcNAc
# Outline: as §1
# [22] = biological target: Fuc(a1-2)[Gal(a1-3)]Gal(b1-3)GlcNAc(b1-2)Man(a1-3)[Fuc(a1-2)[Gal(a1-3)]Gal(b1-3)GlcNAc(b1-2)Man(a1-6)]Man(b1-4)GlcNAc(b1-4)GlcNAc
# Outline: as §1
# [23] = biological target: Fuc(a1-2)[Gal(a1-3)]Gal(b1-3)GlcNAc(b1-2)Man(a1-3)[Fuc(a1-2)[Gal(a1-3)]Gal(b1-3)GlcNAc(b1-2)Man(a1-6)]Man(b1-4)GlcNAc(b1-4)[Fuc(a1-6)]GlcNAc
# Outline: as §1
# [24] = biological target: Fuc(a1-2)[Gal(a1-3)]Gal(b1-3)GlcNAc(b1-3)GalNAc
# Outline: as §1
# [25] = biological target: Fuc(a1-2)[Gal(a1-3)]Gal(b1-3)GlcNAc(b1-6)GalNAc
# Outline: as §1
# [26] = biological target: Fuc(a1-2)[Gal(a1-3)]Gal(b1-4)Glc
# Outline: as §1
# [27] = biological target: Fuc(a1-2)[Gal(a1-3)]Gal(b1-4)GlcNAc
# Outline: as §1
# [28] = biological target: Fuc(a1-2)[Gal(a1-3)]Gal(b1-4)GlcNAc(b1-2)Man
# Outline: as §1
# [29] = biological target: Fuc(a1-2)[Gal(a1-3)]Gal(b1-4)GlcNAc(b1-2)Man(a1-3)[Fuc(a1-2)[Gal(a1-3)]Gal(b1-4)GlcNAc(b1-2)Man(a1-6)]Man(b1-4)GlcNAc(b1-4)GlcNAc
# Outline: as §1
# [30] = biological target: Fuc(a1-2)[Gal(a1-3)]Gal(b1-4)GlcNAc(b1-2)Man(a1-3)[Fuc(a1-2)[Gal(a1-3)]Gal(b1-4)GlcNAc(b1-2)Man(a1-6)]Man(b1-4)GlcNAc(b1-4)[Fuc(a1-6)]GlcNAc
# Outline: as §1
# [31] = biological target: Fuc(a1-2)[Gal(a1-3)]Gal(b1-4)GlcNAc(b1-3)GalNAc
# Outline: as §1
# [32] = biological target: Fuc(a1-2)[Gal(a1-3)]Gal(b1-4)GlcNAc(b1-3)[Fuc(a1-2)[Gal(a1-3)]Gal(b1-4)GlcNAc(b1-6)]GalNAc
# Outline: as §1
# [33] = biological target: Fuc(a1-2)[Gal(a1-3)]Gal(b1-4)GlcNAc(b1-6)GalNAc
# Outline: as §1
# [34] = biological target: Fuc(a1-2)[Gal(a1-3)]Gal(b1-4)[Fuc(a1-3)]Glc
# Outline: as §1
# [35] = biological target: Fuc(a1-2)[Gal(a1-3)]Gal(b1-4)[Fuc(a1-3)]GlcNAc
# Outline: as §1
# [36] = biological target: Fuc(a1-2)[Gal(a1-3)]Gal(b1-4)[Fuc(a1-3)]GlcNAc(b1-3)GalNAc
# Outline: as §1
# [37] = biological target: Fuc(a1-2)[Gal(a1-4)]Gal(b1-4)GlcNAc
# Outline: as §1
# [38] = biological target: Fuc(a1-2)[GalNAc(a1-3)]Gal
# Outline: as §1
# [39] = biological target: Fuc(a1-2)[GalNAc(a1-3)]Gal(b1-3)GalNAc(a1-3)[Fuc(a1-2)]Gal(b1-4)GlcNAc
# Outline: as §1
# [40] = biological target: Fuc(a1-2)[GalNAc(a1-3)]Gal(b1-3)GalNAc(b1-3)Gal(a1-4)Gal(b1-4)Glc
# Outline: as §1
# [41] = biological target: Fuc(a1-2)[GalNAc(a1-3)]Gal(b1-3)GlcNAc
# Outline: as §1
# [42] = biological target: Fuc(a1-2)[GalNAc(a1-3)]Gal(b1-3)GlcNAc(b1-2)Man(a1-3)[Fuc(a1-2)[GalNAc(a1-3)]Gal(b1-3)GlcNAc(b1-2)Man(a1-6)]Man(b1-4)GlcNAc(b1-4)GlcNAc
# Outline: as §1
# [43] = biological target: Fuc(a1-2)[GalNAc(a1-3)]Gal(b1-3)GlcNAc(b1-2)Man(a1-3)[Fuc(a1-2)[GalNAc(a1-3)]Gal(b1-3)GlcNAc(b1-2)Man(a1-6)]Man(b1-4)GlcNAc(b1-4)[Fuc(a1-6)]GlcNAc
# Outline: as §1
binder,measurement,setting,value
B1,glycan array binding signal (z-score),[1],-0.203
same,glycan array binding signal (z-score),[2],-0.264
same,glycan array binding signal (z-score),[3],-0.258
same,glycan array binding signal (z-score),[4],-0.236
same,glycan array binding signal (z-score),[5],-0.237
same,glycan array binding signal (z-score),[6],-0.267
same,glycan array binding signal (z-score),[7],-0.256
same,glycan array binding signal (z-score),[8],-0.265
same,glycan array binding signal (z-score),[9],-0.219
same,glycan array binding signal (z-score),[10],-0.188
same,glycan array binding signal (z-score),[11],-0.264
same,glycan array binding signal (z-score),[12],-0.278
same,glycan array binding signal (z-score),[13],-0.135
same,glycan array binding signal (z-score),[14],-0.271
same,glycan array binding signal (z-score),[15],-0.267
same,glycan array binding signal (z-score),[16],-0.257
same,glycan array binding signal (z-score),[17],-0.247
same,glycan array binding signal (z-score),Fuc(a1-2)Gal6S(b1-4)Glc,-0.253
same,glycan array binding signal (z-score),[18],-0.259
same,glycan array binding signal (z-score),Fuc(a1-2)[Gal(a1-3)]Gal,-0.274
same,glycan array binding signal (z-score),[19],-0.252
same,glycan array binding signal (z-score),[20],-0.24
same,glycan array binding signal (z-score),[21],-0.247
same,glycan array binding signal (z-score),[22],-0.252
same,glycan array binding signal (z-score),[23],-0.218
same,glycan array binding signal (z-score),[24],-0.266
same,glycan array binding signal (z-score),[25],-0.255
same,glycan array binding signal (z-score),[26],-0.222
same,glycan array binding signal (z-score),[27],-0.25
same,glycan array binding signal (z-score),[28],-0.266
same,glycan array binding signal (z-score),[29],-0.244
same,glycan array binding signal (z-score),[30],-0.28
same,glycan array binding signal (z-score),[31],-0.251
same,glycan array binding signal (z-score),[32],-0.254
same,glycan array binding signal (z-score),[33],-0.264
same,glycan array binding signal (z-score),[34],-0.245
same,glycan array binding signal (z-score),[35],-0.227
same,glycan array binding signal (z-score),[36],-0.213
same,glycan array binding signal (z-score),[37],-0.215
same,glycan array binding signal (z-score),[38],-0.253
same,glycan array binding signal (z-score),[39],-0.26
same,glycan array binding signal (z-score),[40],-0.28
same,glycan array binding signal (z-score),[41],-0.242
same,glycan array binding signal (z-score),[42],-0.274
same,glycan array binding signal (z-score),[43],-0.228
